Measurements: PubChem BioAssay AID686979 (National Center for Advancing Translational Sciences (NCATS), 2013)
“And” between values parts separate entries of the source, which are not always exact repeats. Equal values may be shown once. Screen size: about 420,000 compounds; about 50,000 (12%) were called active. The inconclusive results got no clear call from the source; some entries with a clear call stand among them for comparison. Calls come from the whole dose curve; as a rule, active = well fitted inhibition curve with a large enough effect; inconclusive = small, poorly fitted or top-dose-only effect; inactive = flat fitted curve, though single readings scatter. Potencies of inconclusive entries are doubtful fits and often do not repeat.

experiment: qHTS for Inhibitors of human tyrosyl-DNA phosphodiesterase 1 (TDP1): qHTS in cells in presence of CPT; details: chicken DT40 Tdp1-/-;hTDP1 cells + 20 nM CPT, ATP luminescence, 48 h; activity change, negative = growth inhibition: at 46.2 µM (top of the series) unless noted; note: nearly all actives have a fitted effect of over 55% in size
Summary of the method: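 Cell growth measured by CellTiter-Glo luminescence after a minimum 48 h, 37 C compound exposure with 20 nM CPT in Tdp1-knockout DT40 cells stably expressing hTDP1, seeded 400/well; qHTS titration format.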
% is set by controls: 0 for no effect and ±100 for the full control effect; potency is the fitted concentration of half-maximal effect; tags give direction and shape of the fitted curve.

Compound	Potency	activity change, negative = growth inhibition
CCCCNC(=S)N1CCN(c2ccc(C(C)=O)cc2)CC1	inconclusive: 16.4 µM [inhibitor, single point]	–
Oc1ccc2ccccc2c1N=Nc1nccs1	active: 1.16 µM	–
Cc1ccc2ncnc(Nc3cccc([N+](=O)[O-])c3)c2c1	active: 23.1 µM	–
CN(Cc1cnc2nc(N)nc(N)c2n1)c1ccc(C(=O)NC(CCC(=O)O)C(=O)O)cc1C(F)(F)F (stereo not given)	active: 0.0291 µM	–
COc1cc2oc(=O)cc(-c3ccc(-c4ccc(CO)cc4)cc3)c2c(OC)c1OC	active: 20.6 µM	–
CCOC(=O)c1c(-c2ccccc2)csc1NC(=S)NC(=O)c1ccccc1	inconclusive: 29.1 µM [inhibitor, single point]	–
OCC[C@@H]1C[C@H](O)[C@@H](O)[C@]2(CCc3ccccc3CO2)O1	–	inactive: -11.6%
O=C(COC(=O)c1ccc(O)cc1)NCCc1c[nH]c2ccccc12	inconclusive: 18.4 µM [inhibitor, single point]	–
COC(=O)C(C)NC(=O)C1CCCN1C(=O)CNC(=O)OCc1ccccc1 (stereo not given)	–	inactive: -21.9%
COc1ccc(Cn2nnnc2C(c2cc3ccc(OC)cc3[nH]c2=O)N2CCCCCC2)cc1 (stereo not given)	active: 16.4 µM	–
CCc1ccc(S(=O)(=O)c2nnn3c2nc(NCc2cccs2)c2sccc23)cc1	inconclusive: 29.1 µM [inhibitor, single point]	–
Cc1ccn2cc(-c3cccc(NC(=O)C(C)C)c3)nc2c1	active: 14.6 µM	–
O=C(CSc1nnc(CNC(=O)c2ccccc2)o1)NCc1ccccc1	–	inconclusive: -31.1% [inhibitor]
O=S(=O)(c1ccccc1Br)N(Cc1ccccc1)CC(O)COCc1ccccc1 (stereo not given)	active: 23.1 µM	–
O=C(c1cccc(F)c1)N1CCN(Cc2cccc(Br)c2)CC1	inconclusive: 9.2 µM [inhibitor, single point]	–
Cc1ccc(C(=O)NCCNc2ccc(Cl)cc2[N+](=O)[O-])o1	inconclusive: 29.1 µM [inhibitor, single point]	–
CN1CCN(C(c2ccc(F)cc2)c2sc3nc(-c4ccco4)nn3c2O)CC1 (stereo not given)	–	inactive: -15.8%
O=C(NC1CCCCCCC1)C1CCN(c2nc3ccccc3o2)CC1	inconclusive: 29.1 µM [inhibitor, single point]	–
Cc1cccc(C(=O)Nc2cccc(C(=O)OCc3cc(=O)n4c5c(sc4n3)CCCC5)c2)c1	inconclusive: 29.1 µM [inhibitor, single point]	–
CCCSc1nc(N2CCCC2)c2c(c1C#N)CC(C)(C)OC2	inconclusive: 13 µM [inhibitor, partial curve]	–
CC(C)(C)OC(=O)[C@H](Cc1ccccc1)NC(=O)c1nc[nH]c1C(=O)N1CCN(c2ccccc2)CC1	inconclusive: 29.1 µM [inhibitor, single point]	–
Cc1cc(C(=O)CSc2nnc(-c3ccco3)o2)c(C)n1C	inconclusive: 23.1 µM [inhibitor, single point]	–
CCC(C)(C)C1CCC2(CC1)NC(=S)N(c1ccccc1)N2 (stereo not given)	–	inactive: 15%
O=C(CN1C(=O)c2ccccc2C1=O)NN1C(=O)c2ccccc2C1=O	–	inactive: -2.17%
Cc1nnsc1-c1onc(C)c1C(=O)O/N=C/c1ccc(Cl)cc1	inconclusive: 0.0052 µM [inhibitor, full curve, poor fit]	–

Compound	Potency	activity change, negative = growth inhibition
CCOCCOC(=O)C1=C(C)NC2=C(C(=O)CC(c3cccs3)C2)C1c1ccsc1 (stereo not given)	inconclusive: 23.1 µM [inhibitor, partial curve, poor fit]	–
CC(=O)Nc1c(C(=O)c2ccccc2)oc2ccccc12	inconclusive: 25.9 µM [inhibitor, single point]	–
Cc1ccc(S(=O)(=O)N2CCC(N3CCC(C)CC3)CC2)cc1	–	inactive: -21.9%
N/C(Cc1ccc(Cl)cc1Cl)=N\OC(=O)Cc1ccccc1	–	inactive: -24.9%
O=C(Nc1ccccc1F)C(Cc1ccccc1)n1cccc1 (stereo not given)	inconclusive: 18.4 µM [inhibitor, single point]	–
COCCCNc1nc2c(c(=O)n(C)c(=O)n2C)n1Cc1cccc(OC)c1	active: 18.4 µM	–
CCOc1ccc(C2C3=C(CCCC3=O)OC(N)=C2[N+](=O)[O-])cc1 (stereo not given)	–	inactive: 3.96%
O=C(Nc1nccs1)c1cccc2ccccc12	–	inactive: -7.26%
O=C(CSc1nc2cc(C(=O)O)ccc2c(=O)n1-c1ccc(F)cc1)Nc1ccc(F)c(F)c1F	–	inactive: -10.2%
Cc1nn(-c2ccc([N+](=O)[O-])cc2)c2c1C(c1cccc(Br)c1)N1C(=N2)C(=O)Nc2ccccc21 (stereo not given)	active: 2.59 µM	–
C=CCn1c(N2CCN(c3ccc(OC)cc3)CC2)nc2c1c(=O)n(C)c(=O)n2C	active: 20.6 µM	–
Cc1nnc(NC(=O)c2ccc(S(=O)(=O)N(C)c3ccccc3)cc2)s1	–	inactive: -21.7%
COc1ccccc1N1CCN(c2cc(N3CCCC3)nc(C)n2)CC1	inconclusive: 25.9 µM [inhibitor, single point]	–
Cc1ccccc1OCCOC(=O)c1c(-c2ccccc2)noc1C	active: 7.31 µM	–
CCOc1ccccc1Oc1cn[nH]c1-c1ccc(OCC(=O)NN)cc1O	–	inactive: 0.146%
O=C(Cc1ccc(-n2c(=O)[nH]c3ccccc3c2=O)cc1)N1CCN(c2cccc(Cl)c2)CC1	inconclusive: 29.1 µM [inhibitor, single point]	–
CN(Cc1ccccc1)C(=O)c1cccc(NC(=O)Cc2cccc(NC(=O)C3CCN(C(=O)c4ccccc4)CC3)c2)c1	inconclusive: 29.1 µM [inhibitor, single point]	–
COc1cc2cncc(Cc3ccc(Cl)cc3)c2cc1OC	active: 14.6 µM	–
CC(C)CCNC(=O)NC(=O)COC(=O)/C=C/c1cc(Br)ccc1F	inconclusive: 25.9 µM [inhibitor, single point]	–
CCC(CC)C(=O)NC12CC3CC(CC(C3)C1)C2	–	inactive: -2.06%
CCOc1ccc2c(c1)C(C)=CC(C)(C)N2S(=O)(=O)c1ccc(F)cc1	inconclusive: 16.4 µM [inhibitor, single point]	–
CC(=O)c1c(O)cc(C)n(Nc2nc(C)cc(C)n2)c1=O	active: 18.4 µM	–
COc1ccc(Cn2c(C(=O)O)c(CNCc3cccs3)c3ccc(C)cc32)cc1	inconclusive: 25.9 µM [inhibitor, single point]	–
COc1cccc(-c2cncnc2-n2ccnc2)c1	inconclusive: 23.1 µM [inhibitor, single point]	–
CCC(=O)c1ccc(OCCSc2ncccn2)cc1	inconclusive: 23.1 µM [inhibitor, single point]	–

Compound	Potency	activity change, negative = growth inhibition
O=S1(=O)CCOC[C@H](CC2CCCCC2)N1Cc1ccccc1Br	inconclusive: 35.5 µM [inhibitor, single point] and inconclusive: 20.6 µM [inhibitor, single point]	–
Cc1ccc(SCc2[nH]nc3c2C(c2ccco2)C(C#N)=C(N)O3)cc1 (stereo not given)	inconclusive: 29.1 µM [inhibitor, single point]	–
Fc1ccc2[nH]c3c(Cl)ncnc3c2c1	–	inactive: -2.57%
O=C(Nc1ccc2nc(SCC(=O)N3CCOCC3)sc2c1)c1ccc(F)cc1	active: 16.4 µM	–
COc1cc(-c2cc3nc(NC4CCCCC4)ccn3n2)cc(OC)c1OC	active: 16.4 µM	–
Cc1ccc2[nH]c(=O)c(CN(CC3COCCO3)C(=O)Nc3ccccc3C)cc2c1 (stereo not given)	inconclusive: 29.1 µM [inhibitor, single point]	–
Cc1cc(C)c(Nc2nn3c(=O)c4cc5c(cc4nc3s2)OCO5)c(C)c1	–	inactive: -5.96%
CC(C)C[C@H]1CNC(=S)N1C[C@H]1CCCN1C[C@H](Cc1ccccc1)N1C[C@H](CC(C)C)N(CCc2ccccc2)C1=S	active: 13 µM	–
CNC(=O)c1cc2c(n(-c3ccc(C)cc3)c1=O)CC(C)(C)CC2=O	–	inactive: -0.429%
CCc1ccc(-c2nc(CSCC(=O)N3CCN(c4ccccn4)CC3)c(C)o2)cc1	active: 23.1 µM	–
COc1ccccc1N1CCN(C(=O)C2CCN(S(=O)(=O)c3ccccc3)CC2)CC1	–	inactive: -18.5%
Cc1ccc(S(=O)(=O)N(C)CCCC(=O)Nc2cccc3ccccc23)cc1	inconclusive: 20.6 µM [inhibitor, partial curve]	–
Cn1c(Cn2nnc3ccccc32)nnc1SCC(=O)N1c2ccccc2CCc2ccccc21	active: 23.1 µM	–
CCn1nnnc1SCC(=O)Nc1ccc(F)cc1	–	inactive: -16.5%
Cc1cc(C)c(-c2csc(NC(=O)/C=C/c3cccs3)n2)c(C)c1	inconclusive: 25.9 µM [inhibitor, single point]	–
O=C(Nc1ccc(NC(=O)c2ccc3c(c2)OCCO3)cc1)c1ccccc1	–	inconclusive: -28.7% [inhibitor]
Cc1ccc(NC(=O)c2ccco2)c(NC(=O)COc2ccccc2)c1	–	inactive: -21%
CCCC(=O)N1CCN(c2nc3ccccc3s2)CC1	inconclusive: 20.6 µM [inhibitor, single point]	–
COc1cccc(C(=O)Nc2ccc3oc(-c4ccc5ccccc5c4)nc3c2)c1	inconclusive: 13 µM [inhibitor, single point]	–
Nc1ccc(NC(=O)c2ccco2)c(Cl)c1	–	inactive: -1.69%
Cc1cccc(Cn2ncc(Cl)c(Cl)c2=O)c1	active: 11.6 µM	–
O=C(CSc1cccc[n+]1[O-])CSc1cccc[n+]1[O-]	active: 1.03 µM	–
S=C(NCCc1ccccc1)Nc1ccc(N2CCCCC2)cc1	inconclusive: 29.1 µM [inhibitor, single point]	–
Cc1c2cnn(CC(=O)N3CCCCC3)c(=O)c2c(C)n1Cc1ccc(F)cc1	inconclusive: 25.9 µM [inhibitor, single point]	–
N/C(=N\OC(=O)COc1ccc2ccccc2c1)c1ccncc1	active: 20.6 µM	–
